{"source": "ChEMBL document CHEMBL4888484", "about": "“Replenishing the malaria drug discovery pipeline: Screening and hit evaluation of the MMV Hit Generation Library 1 (HGL1) against asexual blood stage Plasmodium falciparum ,using a nano luciferase reporter read-out” (2022)", "note": "About 540 (0.36%) of roughly 150,000 compounds showed an effect of 50% or more. The list shows a part of the results.", "data": [{"system": "Plasmodium falciparum", "experiment": "Primary screen in NF54 nanoGlo assay, in single point, at 2uM, 72h; a lower Z score goes with more inhibition", "assay_type": "functional, Erythrocyte", "settings": "timepoint 72 hour", "units": {"% Inhibition": "%"}, "values": [{"compound": "CC1CCC(NC(=O)[C@H]2CCCN(S(=O)(=O)c3ccc4[nH]c(=O)oc4c3)C2)CC1", "note": "(stereo partly drawn)", "% Inhibition": -13, "Z score": 1.34}, {"compound": "CC(C)C[C@H](CN)CC(=O)OCCOC1CCC1", "% Inhibition": 6, "Z score": -0.7}, {"compound": "Cc1ccc(NS(=O)(=O)CCCS(=O)(=O)F)nc1", "% Inhibition": 0, "Z score": 0.06}, {"compound": "C[C@H](NC(=O)Nc1ccccc1)C(=O)N1CCC2(CC1)OCCO2", "% Inhibition": -2, "Z score": 0.35}, {"compound": "COc1ccc2c(c1)c(C(=O)Nc1nc[nH]n1)cn2C(C)C", "% Inhibition": -3, "Z score": 0.37}, {"compound": "CC(C)Cn1cncc1Cn1cnc2cn(C)nc2c1=O", "% Inhibition": -10, "Z score": 1.29}, {"compound": "CCCc1nc(CN[C@@H](C)Cn2ccnc2CC)cs1", "% Inhibition": -5, "Z score": 0.61}, {"compound": "O=C(COc1ccc2c(c1)OCO2)N1C[C@H](O)[C@@H](N2CCCOCC2)C1", "% Inhibition": 7, "Z score": -1.25}, {"compound": "COc1ccc(C(=O)Nc2cccc(-c3noc(=O)[nH]3)c2)c(O)c1", "% Inhibition": 1, "Z score": -0.1}, {"compound": "c1ccc(COCc2cn(CCc3c[nH]cn3)nn2)cc1", "% Inhibition": 5, "Z score": -0.68}, {"compound": "COc1c(C)cc(C(=O)[C@H]2CCCN(C3CCCC3)C2)cc1C", "% Inhibition": -1, "Z score": 0.13}, {"compound": "CCn1nc(-c2ccc(OC)cc2F)cc1C(=O)N1CCC2(CC1)OCCO2", "% Inhibition": -16, "Z score": 1.95}, {"compound": "CN1C2CCC1CN(c1ncc(Cl)cn1)CC2", "note": "(stereo not drawn)", "% Inhibition": 4, "Z score": -0.48}, {"compound": "O=C(c1ccc(-n2cnnn2)cc1)N1CCC2(CC1)OCCO2", "% Inhibition": -18, "Z score": 3.41}, {"compound": "Cc1ccc(CN2CC3CC2(C(F)(F)F)C3)nn1", "% Inhibition": -8, "Z score": 0.74}, {"compound": "C=CCCC(=O)NCC#CCN1CCCC1", "% Inhibition": -7, "Z score": 1.04}, {"compound": "COc1ccc(N2C(=O)NC(=O)C3(Cc4ccccc4N4CC(C)CC(C)C43)C2=O)cc1", "note": "(stereo not drawn)", "% Inhibition": 7, "Z score": -0.89}, {"compound": "CN(C)Cc1ccccc1-c1ccc2n(c1=O)C[C@H]1C[C@@H]2CN(CC2CCCCC2)C1", "% Inhibition": 6, "Z score": -0.95}, {"compound": "O=C(Cn1ccc(C(F)(F)F)n1)N1C2CCC1c1ccccc12", "% Inhibition": -3, "Z score": 0.5}, {"compound": "Cc1cccc(S(=O)(=O)N2C3CCC2C(C(=O)O)C3)c1Cl", "note": "(stereo not drawn)", "% Inhibition": -10, "Z score": 1.05}, {"compound": "O=C(Cc1ccc(Cl)c(Cl)c1)N1CCC2(CC1)OCCO2", "% Inhibition": -11, "Z score": 1.58}, {"compound": "CCO[C@@H](C)CNC(=O)N1CCC(N(C(=O)CC)c2ccccc2)CC1", "% Inhibition": -3, "Z score": 0.63}, {"compound": "O=C(c1ccc(F)c(F)c1)N1C[C@H]2COc3ccccc3C[C@@]2(C(=O)O)C1", "% Inhibition": -7, "Z score": 1.31}, {"compound": "O=C(c1ccncc1)N1C[C@H](c2cc(F)cc(F)c2)[C@@H]2[C@H]1C1CCN2CC1", "% Inhibition": 6, "Z score": -0.89}]}]}
